The conditions of the data set: from DSC profile.

Consider one compound from US11767302B2, “Reagents and methods for tetrazine synthesis” (University of Delaware, priority 2020, dated 2023).

With `Cc1nnc(SCc2ccc(-c3ccccc3)cc2)nn1` [b-Tz, 3-([1,1′-biphenyl]-4-ylmethylthio)-6-methyl-1,2,4,5-tetrazine], the “shock sensitivity / explosivity flag by modified Yoshida correlation” value is recorded as “not flagged as potentially shock sensitive or explosive”.
